# Screen size: about 310,000 compounds; about 14,000 (4.5%) showed an effect of 50% or more. Effects have a minus sign here. The list shows a part of the results.
# Target: human ether-à-go-go-related gene (hERG) potassium channel (human, UniProt Q12809)
# Assay: primary screen, population patch clamp on CHO cells stably expressing hERG
# 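Also: peak tail current of the secondary pulse compared with the same well before compound.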
# human ether-à-go-go-related gene (hERG) potassium channel, sequence (Q12809 whole entry, looked up): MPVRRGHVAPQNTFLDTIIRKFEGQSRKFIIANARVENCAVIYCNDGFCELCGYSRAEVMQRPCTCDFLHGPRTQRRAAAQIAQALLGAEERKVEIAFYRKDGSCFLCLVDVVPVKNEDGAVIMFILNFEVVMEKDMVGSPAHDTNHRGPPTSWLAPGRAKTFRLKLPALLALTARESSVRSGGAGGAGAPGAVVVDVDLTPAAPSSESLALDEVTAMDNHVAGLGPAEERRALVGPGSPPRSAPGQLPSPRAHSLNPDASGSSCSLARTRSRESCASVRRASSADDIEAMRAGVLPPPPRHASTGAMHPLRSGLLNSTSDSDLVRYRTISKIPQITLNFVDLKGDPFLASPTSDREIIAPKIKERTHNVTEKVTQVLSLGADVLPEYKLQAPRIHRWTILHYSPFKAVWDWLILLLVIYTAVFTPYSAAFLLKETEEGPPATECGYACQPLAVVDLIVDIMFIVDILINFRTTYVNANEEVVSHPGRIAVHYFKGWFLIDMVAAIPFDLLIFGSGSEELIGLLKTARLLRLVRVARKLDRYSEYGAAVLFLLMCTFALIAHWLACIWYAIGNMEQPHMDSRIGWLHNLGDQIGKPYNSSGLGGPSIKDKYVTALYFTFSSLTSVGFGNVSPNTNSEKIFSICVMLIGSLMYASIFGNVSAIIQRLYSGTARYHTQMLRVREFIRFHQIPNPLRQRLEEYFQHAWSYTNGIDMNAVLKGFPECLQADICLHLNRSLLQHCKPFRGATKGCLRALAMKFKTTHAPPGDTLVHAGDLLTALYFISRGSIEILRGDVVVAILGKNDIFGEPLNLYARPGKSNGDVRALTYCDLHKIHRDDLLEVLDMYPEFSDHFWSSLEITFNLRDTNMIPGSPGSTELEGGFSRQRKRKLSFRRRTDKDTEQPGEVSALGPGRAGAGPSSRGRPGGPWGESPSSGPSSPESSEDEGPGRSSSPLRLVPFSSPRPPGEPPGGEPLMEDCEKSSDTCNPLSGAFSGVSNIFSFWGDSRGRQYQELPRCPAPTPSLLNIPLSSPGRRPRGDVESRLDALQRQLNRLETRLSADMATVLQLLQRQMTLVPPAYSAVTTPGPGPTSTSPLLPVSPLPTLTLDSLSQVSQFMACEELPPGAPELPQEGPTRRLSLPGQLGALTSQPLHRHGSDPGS
row,SMILES,"hERG current change (%, negative = inhibition) at 10uM"
1,CCC(C)NC(=O)CSc1n[nH]c(-c2cc(Cl)ccc2OC)n1 (stereo not drawn),-5.15%
2,N#CCN1CCC/C1=C\[N+](=O)[O-],24%
3,Cn1c(NC(=O)c2ccccc2)nc2ccccc21,5.2%
4,COCCn1c(SCC(=O)NC2CCCC2)nnc1-c1ccco1,9.84%
5,Cc1ccoc1C(=O)Nc1ccc2ccccc2c1,0.232%
6,Cc1ccc(C)c(-c2nnc(NC(=O)CCS(=O)(=O)c3ccccc3)o2)c1,-28.4%
7,CCCC(C)NC(=O)Cc1ccc(Br)cc1 (stereo not drawn),8.89%
8,Cc1cc(NC(=S)N(CCN2CCOCC2)Cc2ccccc2F)ccc1Cl,24.1%
9,Cl.Clc1ccc(SCCOCCN2CCc3ccccc3C2)cc1,-53.7%
10,O=[N+]([O-])c1ccc(-[n+]2nc(-c3ccccc3)nn2-c2ccccc2)cc1.[Br-],17.1%
11,Cc1ccc(-n2ncc3c(N4CCC(C(N)=O)CC4)ncnc32)c(C)c1,-10.5%
12,S=C1NCCNC(=S)NCCOCCOCCN1,20.8%
13,Cc1ccc(NC(=O)CNC(=O)c2cccs2)cc1S(=O)(=O)Nc1ccc(Cl)cc1,-8.41%
14,O=C1/C(=C/c2cccnc2)N=C2CCCCCN12,14.1%
15,CS(=O)(=O)c1ccc(Cl)c(NC(=O)COC(=O)CNC(=O)c2ccc(Br)o2)c1,-4.77%
16,COc1ccc(S(=O)(=O)N2CCC(O)(c3cccnc3)CC2)cc1OC,7.14%
17,O=C(Nc1cccc(O)c1)c1ccccc1[N+](=O)[O-],27.7%
18,COc1ccccc1C(=O)NC(=S)Nc1ccc(N2CCOCC2)c(Cl)c1,13.1%
19,CCOC(=O)C1=C(C)NC(=S)N(C(C)=O)C1c1ccc(Cl)cc1 (stereo not drawn),9.12%

row,SMILES,"hERG current change (%, negative = inhibition) at 10uM"
1,O=C(CCN1CCC(c2cccs2)=N1)c1cccs1,0.436%
2,Cc1c(Cl)cnc(NC(=O)COC(=O)c2ccncc2)c1Cl,6.64%
3,O=C(Cn1cnc2ccccc21)N/N=C/c1ccc([N+](=O)[O-])cc1,-1.88%
4,Cc1cccc(N(CC(N)=O)C2SC(=O)N(c3ccccc3)C2=O)c1 (stereo not drawn),11.6%
5,CCNC(=O)C(=O)N/N=C/c1cc([N+](=O)[O-])ccc1O,4.32%
6,O=C(Nc1ccccc1C(F)(F)F)C1CCN(C(=O)c2cccs2)CC1,10.5%
7,O=C(Nc1ccc(F)c(Cl)c1)c1ccc2c(c1)OCO2,11.3%
8,O=C(Nc1ccc(COc2ccccc2)cc1)Oc1ccccc1N1CCOCC1,20%
9,COc1cccc(CC2(CO)CCCN(Cc3sc(N4CCCC4)nc3Cl)C2)c1 (stereo not drawn),-27.2%
10,COc1ccc(NC(=O)Nc2nnc(-c3cccs3)s2)cc1,-5.26%
11,Cc1ccc2sc(C)[n+](CCC(C)S(=O)(=O)[O-])c2c1 (stereo not drawn),3.57%
12,CN1C(=O)C(=Cc2ccc(-c3cccc(Cl)c3)o2)C(=O)N(C)C1=O,10.2%
13,CCC(C(=O)Nc1ccc2c(c1)OCCO2)n1nnc2ccccc2c1=O (stereo not drawn),7.68%
14,Cn1c(CNC(=O)CNC(=O)c2ccccc2)cc(=O)n(C)c1=O,13.3%
15,CCN1C(c2ccccc2)C(C)C(=O)C(C)C1c1ccccc1 (stereo not drawn),-3.9%
16,COc1ccc(N(C(=O)c2ccccc2OC)C2C=CS(=O)(=O)C2)c(OC)c1 (stereo not drawn),2.26%
17,CC(C)C(C(=O)NC1CCCCC1)N(CC1CCCO1)C(=O)CNS(=O)(=O)c1ccc(F)cc1 (stereo not drawn),-7.17%
18,Cc1ccccc1N1C(=O)CN(Cc2sccc2C)C1=S,-2.01%
19,CCOC(=O)c1cnc(-c2ccc(C(F)(F)F)cn2)[nH]c1=O,5.62%

row,SMILES,"hERG current change (%, negative = inhibition) at 10uM"
1,COc1ccc(C(=O)OC(C)C(=O)NC2CCCc3ccccc32)cc1OC (stereo not drawn),-13.8%
2,Cc1cccc(NC(=O)NCc2cccnc2)c1C,-35.9%
3,CC(C)c1ccc(NC2CCCN(C(=O)c3ccncc3)C2)cc1 (stereo not drawn),-4.2%
4,COc1ccc(-c2sc3ccc(OC)cc3c2C#CCCO)cc1,17%
5,CN(C)S(=O)(=O)N1CCN(S(=O)(=O)c2ccc3ccccc3c2)CC1,21.4%
6,O=c1[nH]cnc(O)c1C(c1ccc(F)cc1)c1c(O)nc[nH]c1=O,18.5%
7,O=C1CN(C(=O)COc2ccc(F)cc2Br)c2ccccc2N1,-29.9%
8,O=C1C(C=NCCCN2CCOCC2)=C(O)c2ccccc21,8.08%
9,Cc1cccc(C(=O)OCC(=O)Nc2c(C)n(C)n(-c3ccccc3)c2=O)c1,-13%
10,CCc1nc2ccc(C(=O)N3CCN(c4cccc(C(F)(F)F)c4)CC3)cc2nc1CC,-13.5%
11,CCc1cc2ccc(OC)cc2nc1SCC(=O)NNC(C)=O,16.4%
12,CCCCCCc1cc2cc(-c3nnc(-c4ccccc4OC)o3)c(=O)oc2cc1O,1.5%
13,COc1ccc(C(=O)NCC(O)COc2ccc(C(C)(C)C)cc2)cc1[N+](=O)[O-] (stereo not drawn),7.66%
14,Cc1c(C(=O)Oc2cc(N)n(S(C)(=O)=O)n2)cccc1[N+](=O)[O-],-4.5%
15,CCN(C(=O)COC(=O)Cc1ccccc1)c1c(N)n(Cc2ccccc2)c(=O)[nH]c1=O,12.2%
16,O=C(CCc1ccccc1)N1CCN(c2ccccc2F)CC1,15.9%
17,O=C(CCS(=O)(=O)c1ccc(F)cc1)Nc1nnc(-c2cccs2)o1,14.7%
18,Cc1ccc(-c2cc(C(=O)NCCCn3ccnc3)c3cc(Br)ccc3n2)o1,-73.8%
19,COc1ccc(N(CC(=O)NCc2ccncc2)S(=O)(=O)c2ccccc2[N+](=O)[O-])c(OC)c1,-36.4%

# Source: article PMC4336329 (PLoS ONE, 2015)
